Test results published in paper PMC4336329 (PLoS ONE, 2015).
About 14,000 (4.5%) of roughly 310,000 compounds showed an effect of 50% or more. Effects have a minus sign here. The list shows a part of the results.

What follows are molecules tested against human ether-à-go-go-related gene (hERG) potassium channel (human, UniProt Q12809) (assay: primary screen, population patch clamp on CHO cells stably expressing hERG).
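Also: peak tail current of the secondary pulse compared with the same well before compound.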

Chain of human ether-à-go-go-related gene (hERG) potassium channel (Q12809 whole entry, looked up): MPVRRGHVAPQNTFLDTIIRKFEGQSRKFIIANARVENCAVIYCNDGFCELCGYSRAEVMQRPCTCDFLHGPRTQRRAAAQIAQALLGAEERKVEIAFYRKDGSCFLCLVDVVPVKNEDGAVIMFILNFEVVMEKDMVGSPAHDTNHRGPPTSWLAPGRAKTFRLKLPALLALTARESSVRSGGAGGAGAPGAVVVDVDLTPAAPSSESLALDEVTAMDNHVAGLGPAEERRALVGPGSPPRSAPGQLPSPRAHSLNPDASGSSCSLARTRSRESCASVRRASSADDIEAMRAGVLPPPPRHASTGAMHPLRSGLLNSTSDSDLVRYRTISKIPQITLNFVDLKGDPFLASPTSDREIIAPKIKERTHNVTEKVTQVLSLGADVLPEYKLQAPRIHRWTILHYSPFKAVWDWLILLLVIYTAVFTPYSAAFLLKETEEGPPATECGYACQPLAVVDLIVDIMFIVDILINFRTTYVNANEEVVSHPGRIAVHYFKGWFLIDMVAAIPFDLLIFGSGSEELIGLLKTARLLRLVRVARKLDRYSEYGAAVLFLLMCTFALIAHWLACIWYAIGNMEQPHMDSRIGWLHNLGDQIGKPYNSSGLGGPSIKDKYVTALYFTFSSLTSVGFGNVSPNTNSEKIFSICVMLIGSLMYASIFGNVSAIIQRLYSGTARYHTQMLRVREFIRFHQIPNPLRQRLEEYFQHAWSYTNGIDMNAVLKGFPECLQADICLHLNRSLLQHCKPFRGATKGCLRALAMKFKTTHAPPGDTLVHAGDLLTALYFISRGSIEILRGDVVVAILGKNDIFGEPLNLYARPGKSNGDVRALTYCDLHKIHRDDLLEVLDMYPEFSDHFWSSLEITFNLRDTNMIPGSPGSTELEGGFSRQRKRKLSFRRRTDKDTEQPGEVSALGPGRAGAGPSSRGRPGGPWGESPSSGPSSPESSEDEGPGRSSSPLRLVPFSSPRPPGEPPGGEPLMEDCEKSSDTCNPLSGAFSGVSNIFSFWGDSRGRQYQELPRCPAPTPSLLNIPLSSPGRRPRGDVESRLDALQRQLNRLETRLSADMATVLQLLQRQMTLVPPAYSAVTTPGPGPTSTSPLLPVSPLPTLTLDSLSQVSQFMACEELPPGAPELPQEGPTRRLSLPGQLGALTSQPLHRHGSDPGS

SMILES	hERG current change (%, negative = inhibition) at 10uM [%]
O=C(NNS(=O)(=O)c1ccc(F)cc1)c1cnccn1	13.3
COC(=O)c1ccc(CN2CCc3ccc(NC(=O)c4ccncc4)cc3C2)cc1	-15.1
Cc1cccc(N2C(=O)C(O)=C(C(=O)c3cccs3)C2c2ccc(F)cc2)n1 (centres unmarked)	14.9
Cc1nn(Cc2c(F)cccc2Cl)c(C)c1NC(=O)C1CC1	14.9
CC(=O)Nc1ccc2c(COC(=O)CC3Sc4ccccc4NC3=O)cc(=O)oc2c1 (centres unmarked)	-9.75
CC(=O)N(C)Cc1ccc(C(=O)CCl)cc1	11.6
CCOC(=O)CNc1c(-c2ccc(O)cc2)nc2ccc(Cl)cn12.Cl	-39.7
Cc1n[nH]c(C)c1Sc1ccccc1N	7.09
Cn1nc(C(F)(F)F)c(-c2ccccc2)c1NC(=O)CSCC(=O)O	12.2
CCOC(=O)C1(CCc2ccccc2)CCN(C(=O)C2CCOCC2)CC1	-53.1
CN(C)S(=O)(=O)c1cccc(C(=O)OCC(=O)Nc2sccc2C#N)c1	-2.79
Clc1ccc(-c2cnc(Oc3ccccc3)nc2)cc1	1.23
O=C(Nc1cccnc1)c1ccc(CSc2ccccc2)cc1	10.1
COc1ccc(CNC(=O)Cn2nc([N+](=O)[O-])c(Br)c2C)cc1OC	-10.2
O=C(O)c1cc(NC(=O)c2ccc(Cl)c([N+](=O)[O-])c2)cc(C(=O)O)c1	17.6
N#Cc1c(-c2ccccc2)c(-c2ccccc2)nn(CC(=O)NNC(=O)Nc2ccc(Cl)c(Cl)c2)c1=O	-1.35
COC(=O)c1ccc(/C=C2/C(=O)Oc3ccccc32)cc1	19.2
CCOC(=O)C1CCN(c2ccc([N+](=O)[O-])cc2S(=O)(=O)N2CCOCC2)CC1	-44.9
COC(=O)C1=C(c2ccc(F)cc2OCc2ccccc2)C[C@@H]2CC[C@H]1N2C(=O)N1CCC(O)CC1	-14.5
CC(CCc1ccccc1)NC(=O)c1ccc(C(=O)NC(C)CCc2ccccc2)cc1 (centres unmarked)	4.5
CCNc1nc(NCC)nc(N(C#N)CCOc2ccccc2)n1	-55.1
O=C(CCC(=O)N1CCC2(CC1)OCCO2)Nc1nnc(C(F)(F)F)s1	12.3

SMILES	hERG current change (%, negative = inhibition) at 10uM [%]
Cc1cc(-c2csc(NC(=O)c3cccc(S(=O)(=O)N(C)C)c3)n2)c(C)n1-c1ccccc1	4.36
Cc1c(C(=O)N2CCC[C@H]2C(N)=O)oc2c(F)cccc12	22.2
S=c1[nH]cc(-c2ccccc2)n1-c1ccccc1	17.3
COC(=O)/C(C#N)=C1/C=Cc2ccccc2N1	8.35
Cn1c(Cn2cnc([N+](=O)[O-])n2)nnc1SCC(=O)Nc1cccc(Cl)c1	-16.2
COc1ccc(CCN(C)C2CCCN(S(C)(=O)=O)C2)cc1OC (centres unmarked)	-4.36
CCOC(=O)c1[nH]c2ccc(OC)cc2c1NC(=O)CN1CCc2ccccc2C1	-12.4
O=C(OCC(=O)N1CCCCC1)c1cc(NS(=O)(=O)c2ccc(Cl)c([N+](=O)[O-])c2)ccc1O	9.93
Cc1c(OCC(F)(F)F)ccnc1CSc1nc2ccccc2[nH]1	20.6
COc1ccc2ccc(O)c(CN3CCN(S(=O)(=O)c4cc([N+](=O)[O-])ccc4C)CC3)c2c1	-4.29
Cc1ccc(Nc2c(-c3ccccc3O)nc3ncccn23)cc1	8.52
Cn1c(O)c(/C=C/C=Nc2ccccc2)c(=O)n(C)c1=S	-2.32
CCN(CC)CCN1C(=O)C(O)=C(C(=O)c2cccs2)C1c1ccc(C)o1 (centres unmarked)	15.7
O=c1c2c(n3nnnc3n1Cc1ccccc1)-c1ccccc1CC21CCCC1	18.8
COc1cccc(C(=O)C2CCCN(Cc3cccn3-c3ccccn3)C2)c1 (centres unmarked)	-76.5
CCn1cc(CNC(=O)c2cc(-c3cc(OC)ccc3OC)nc3ccccc23)c(C)n1	-53.9
COc1ccccc1N1CCN(C(=O)c2ccc(Cn3c(=O)[nH]c4ccsc4c3=O)cc2)CC1	8.62
CCN(c1ccccc1)S(=O)(=O)c1cc2c(cc1C)NC(=O)CO2	4.21
Cc1ccn2c(C(=O)CSc3ccccc3Cl)c(C)nc2c1	7.33
COc1ccccc1N1CCN(C(=O)CCNC(=O)c2ccco2)CC1	3.06
Cc1ccc(NC(=O)CN2C(=O)NC3(CCCC3)C2=O)nc1	-6.77
O=C(OCC(=O)N1CCCc2ccccc21)c1cccc(C(F)(F)F)c1	-6.7

SMILES	hERG current change (%, negative = inhibition) at 10uM [%]
Cc1sc2nc(COC(=O)c3cccc(S(=O)(=O)N(C)c4ccccc4)c3)[nH]c(=O)c2c1C	14.3
COc1ccc(Cn2c(C3CC3)nc3ccc(NC(C)=O)cc3c2=O)cc1	11.9
COc1ccc(C)cc1NC(=O)c1nnn(Cc2cccc(C(F)(F)F)c2)c1N	11.9
C/C(=N\OC(=O)c1ccc(C)cc1)c1c(C)nc2cc(C)ccn12	27.5
Clc1ccc(-c2noc(CCCOc3ccccc3)n2)cc1	11.5
O=C(c1ccc2ccccc2c1)C1CCCN(C(=O)c2noc3c2CCCC3)C1 (centres unmarked)	-0.959
CCc1ccc(CN2C(=O)c3ccccc3C2C(=O)NC(C)CC)cc1 (centres unmarked)	6.42
Cc1onc(-c2c(F)cccc2Cl)c1C(N)=S	16.8
COc1cc(/C=C/C(=O)O)cc(S(=O)(=O)N2CCN(S(=O)(=O)c3ccc(Cl)cc3)CC2)c1OC	26.2
CCOC(=O)c1nn(-c2ccc(F)cc2)c(-c2ccccc2)c1C(=O)c1ccccc1	2.45
CN(C(=O)CC1C(=O)NCCN1Cc1ccc(F)cc1Cl)C1CCCCC1 (centres unmarked)	-2.68
CCOC(=O)c1c(N=CN(C)C)c(C#N)c2n1CCCC2	-6.8
Cc1c(C#N)c(N)nc2c3c(sc12)NC(=O)CC3c1ccc(Cl)cc1 (centres unmarked)	-0.141
O=C(Nc1cccc(NC(=O)c2cccs2)c1)c1ccc(F)cc1	13.5
CCOc1ccc(CCNC(=O)COC(=O)COc2ccc(Cl)cc2)cc1OCC	1.26
NC(=O)NCc1cccs1	7.27
CCCc1cc(=O)[nH]c(SCC(=O)NC(=O)NC2CCCC2)n1	4.35
CN(C)c1ccc(N2C(=NC(=O)c3ccccc3)SC3CS(=O)(=O)CC32)cc1 (centres unmarked)	3.69
COc1cccc(-c2cc(C(=O)Nc3ccncc3)c3ccccc3n2)c1	0.0486
Cc1ccc2[nH]c3c(=O)n(CCCN4CCOCC4)cnc3c2c1	-17.8
CCOC(=O)c1[nH]c2ccc(F)cc2c1NC(=O)C1=COCCO1	7.28
O=C(CSc1ccc(-c2cccs2)nn1)NCCc1ccccc1	-14.1

SMILES	hERG current change (%, negative = inhibition) at 10uM [%]
CCN=C(NCC)SC1CC(=O)N(c2ccc(OC)cc2)C1=O (centres unmarked)	0.718
Cn1cnnc1Sc1nc2c(c(=O)n(C)c(=O)n2C)n1C	-1.73
COc1ccc(-c2[nH]ncc2CN2CCN(C3CCCCC3)C(=O)C2)cc1F	-20
CCCOc1ccc(/C(O)=C2\C(=O)C(=O)N(c3ccccn3)C2c2ccccc2F)cc1C (centres unmarked)	-18
COc1ccc(/C=N/NC(=O)c2ccccc2F)cc1CN1CCN(c2ccc(F)cc2)CC1	-76.2
Cc1cc(NS(=O)(=O)c2ccc(NC(=O)C(C)Oc3ccc(Cl)cc3)cc2)no1 (centres unmarked)	12
O=C(NC1CCCCC1)C1CCN(C(=O)c2ccc(-c3ccccc3)cc2)CC1	20.2
COc1ccc2[nH]c(C)c(C(=O)CN3CCN(C/C=C/c4ccccc4)CC3)c2c1	-25.8
CC(Oc1ccc(-c2ccccc2)cc1)C(=O)N1CCOCC1 (centres unmarked)	15.4
COc1ccccc1NS(=O)(=O)c1cccc(C(=O)N/N=C(\C)c2cccnc2)c1	-17.7
CCCn1c(N)c(N(CCOC)C(=O)COC(=O)c2ccccc2NCCO)c(=O)[nH]c1=O	4.72
O=C(O)COc1ccccc1/C=N/NC(=O)CSc1nc2ccccc2s1	9.71
NS(=O)(=O)c1ccc(Nc2nc(-c3ccc4ccccc4c3)cs2)cc1	-7.18
C=CCNC(=S)Nc1ccc(N(C)C)cc1	-6
CCOC(=O)CNC(=O)c1ccc(C#CC2(O)CCCCC2)cc1	2.68
CCN(C(=O)CSc1nc(C)nc2sc(C)c(C)c12)c1ccc(F)cc1	3.2
NS(=O)(=O)c1ccc(CNC(=O)CNC(=O)c2ccc(F)cc2)cc1	23
Cc1ccc(OCCNC(=O)CNC(=O)c2ccc3c(c2)OCO3)cc1	3.68
Cc1nc(NC(C)c2ccccc2)sc1C(=O)Nc1ccccc1 (centres unmarked)	-12.8
Cc1ccc(-c2ccc(=O)[nH]n2)cc1	12
